Results from PubChem BioAssay (NCATS).
Where “and” joins values, the source holds several entries; their conditions need not be identical. Identical values can stand only once. Inconclusive results, whose numbers are uncertain, are shown with a selection of clear calls. Potencies of inconclusive entries are doubtful fits and often do not repeat. Calls of active or inactive are those of the source. Calls follow the shape of the dose curve; as a rule, active = well fitted curve in the direction sought with a large enough effect; inconclusive = small, poorly fitted or top-dose-only effect, or another doubt; inactive = no such curve, though single readings can be large; an effect the other way counts as inactive or inconclusive.

What was measured:
[1] = qHTS of pediatric cancer cell lines to identify multiple opportunities for drug repurposing: Primary screen for SK-N-MC cells (AID 1347093); conditions: SK-N-MC viability, CellTiter-Glo luminescence, 48 h; activity change, negative = cytotoxic: at 46 µM (top of the series)
In short: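 Metabolically active cells were quantified by ATP-dependent luminescence (CellTiter-Glo, 15 min at room temperature) following 48 h treatment. Cells had been plated at 500-1,000 per well and settled for 5 h beforehand.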

[2] = qHTS of pediatric cancer cell lines to identify multiple opportunities for drug repurposing: Primary screen for U-2 OS cells (AID 1347096); also: nearly all actives have a fitted effect of over 50% in size
In short: (§1)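 Viability after 48 h compound treatment at 37C, 500-1,000 cells/well, read as ATP luminescence with CellTiter-Glo. Primary screens used 11-point (MIPE, 0.78 nM-46 µM) or 8-point (NPC, 0.59 nM-46 µM) final concentrations; follow-up screens used 11-point dilutions.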

[3] = qHTS of pediatric cancer cell lines to identify multiple opportunities for drug repurposing: Primary screen for Saos-2 cells (AID 1347097); conditions: Saos-2 viability, CellTiter-Glo ATP luminescence, 48 h; activity change, negative = cytotoxic: at 46 µM (top of the series); also: nearly all actives have a fitted effect of over 40% in size
In short: (§2)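 Readout: CellTiter-Glo luminescence, 48 h treatment. Controls DMSO (neutral) and bortezomib 2.3 µM final (positive). Potency and efficacy taken from primary-screen concentration-response curves.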

[4] = qHTS of pediatric cancer cell lines to identify multiple opportunities for drug repurposing: Primary screen for NB-EBc1 cells (AID 1347095)
In short: as §2

[5] = qHTS of pediatric cancer cell lines to identify multiple opportunities for drug repurposing: Primary screen for SK-N-SH cells (AID 1347098); also: nearly all actives have a fitted effect of over 65% in size
In short: (§3)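 Cells (500-1,000/well) rested 5 h, then received compounds for 48 h; metabolically active cells were measured by CellTiter-Glo luminescence. Final concentrations spanned up to 46 µM (MIPE, 11-point) or 0.59 nM-46 µM (NPC, 8-point) in primary screens, 11-point in follow-ups.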

[6] = qHTS of pediatric cancer cell lines to identify multiple opportunities for drug repurposing: Primary screen for BT-12 cells (AID 1347101); also: nearly all actives have a fitted effect of over 25% in size
In short: as §3

[7] = qHTS of pediatric cancer cell lines to identify multiple opportunities for drug repurposing: Primary screen for NB1643 cells (AID 1347099); also: nearly all actives have a fitted effect of over 50% in size
In short: as §2

[8] = qHTS of pediatric cancer cell lines to identify multiple opportunities for drug repurposing: Primary screen for BT-37 cells (AID 1347094)
In short: as §2

[9] = qHTS of pediatric cancer cell lines to identify multiple opportunities for drug repurposing: Primary screen for LAN-5 cells (AID 1347100); conditions: LAN-5 neuroblastoma viability, CellTiter-Glo luminescence, 48 h; activity change, negative = cytotoxic: at 46 µM (top of the series)
In short: as §1
Potency is read from the fitted curve at half-maximal effect; tags tell the direction and shape of the fitted curve.

In the case of `OC[C@@H](O)[C@@H](O)[C@H](O)[C@H](O)CO`, the Potency [1] is reported as inconclusive: 0.0299 µM [cytotoxic, full curve, poor fit], the Potency [2] is reported as “inactive” and the Potency [3] is reported as inconclusive: 23.7 µM [cytotoxic, single point].
In the case of `Cc1c(C)n(Cc2ccccc2)c2ccc(C(=O)OCCN(C)C)cc12`, the Potency [1] is reported as inconclusive: 23.7 µM [cytotoxic, partial curve, poor fit], the Potency [4] is reported as inconclusive: 23.7 µM [cytotoxic, partial curve, poor fit] and the Potency [3] is reported as inconclusive: 29.9 µM [cytotoxic, single point]. The Potency [5] was inconclusive: 21.7 µM [cytotoxic, single point] and the Potency [6] was inconclusive: 19.5 µM [cytotoxic, single point].
With `CC(C)(C)COc1ccc(-n2cc(C(=O)O)cn2)cc1C#N` the Potency [1] was inconclusive: 20.9 µM [cytotoxic, single point], the Potency [4] was inconclusive: 5.26 µM [cytotoxic, partial curve, poor fit] and the Potency [3] was “inactive”. The Potency [5] was inconclusive: 21.5 µM [cytotoxic, partial curve], the Potency [7] was inconclusive: 16.6 µM [cytotoxic, partial curve] and the Potency [6] was “inactive”.
For `CCCSc1ccc2nc(NC(=O)OC)[nH]c2c1`, the Potency [1] was active: 0.841 µM, the Potency [4] was active: 0.266 µM and the Potency [2] was inconclusive: 6.68 µM [cytotoxic, partial curve]. For the same compound, the Potency [5] was inconclusive: 1.94 µM [cytotoxic, partial curve, poor fit] and the Potency [7] was inconclusive: 1.19 µM [cytotoxic, full curve].
With `CC(C(=O)O)c1ccc2c(c1)[nH]c1ccc(Cl)cc12` (stereo not given) the Potency [1] was inconclusive: 0.0038 µM [cytotoxic, full curve, poor fit], the Potency [4] was “inactive” and the Potency [5] was inconclusive: 17.2 µM [cytotoxic, partial curve, poor fit].
For `CN(C)[C@@H]1C(=O)C(C(N)=O)=C(O)[C@@]2(O)C(=O)C3=C(O)c4c(O)cccc4C[C@H]3C[C@@H]12`, the Potency [1] was “inactive”, the Potency [8] was inconclusive: 34.7 µM [cytotoxic, single point] and the Potency [9] was inconclusive: 26.6 µM [cytotoxic, single point].
For `OCc1cc(C(O)CNCCCCCCOCCCCc2ccccc2)ccc1O` (stereo not given), the Potency [1] was inconclusive: 26.6 µM [cytotoxic, single point], the Potency [8] was inconclusive: 17.4 µM [cytotoxic, single point] and the Potency [5] was inconclusive: 38.6 µM [cytotoxic, single point]. For the same compound, the Potency [6] was inconclusive: 15.5 µM [cytotoxic, partial curve].
In the case of `Cc1oncc1C(=O)Nc1ccc(C(F)(F)F)cc1`, the Potency [1] is reported as inconclusive: 14.8 µM [cytotoxic, partial curve], the Potency [4] is reported as inconclusive: 6.68 µM [cytotoxic, full curve] and inconclusive: 20.9 µM [cytotoxic, partial curve, poor fit] and the Potency [3] is reported as inconclusive: 18.7 µM [cytotoxic, partial curve]. The Potency [5] was inconclusive: 21.7 µM [cytotoxic, partial curve, poor fit] and inconclusive: 27.1 µM [cytotoxic, single point], the Potency [7] was inconclusive: 16.6 µM [cytotoxic, partial curve, poor fit] and the Potency [9] was inconclusive: 5.26 µM [cytotoxic, partial curve, poor fit]. The Potency [6] was inconclusive: 12.3 µM [cytotoxic, partial curve] and inconclusive: 19.3 µM [cytotoxic, partial curve].
For `O=C(O)[C@H](CC(=O)N1C[C@@H]2CCCC[C@H]2C1)Cc1ccccc1`, the Potency [1] was inconclusive: 37.2 µM [cytotoxic, single point], the Potency [4] was “inactive” and the Potency [5] was inconclusive: 42.9 µM [cytotoxic, single point].
In the case of `C=C(c1ccc(C(=O)O)cc1)c1cc2c(cc1C)C(C)(C)CCC2(C)C`, the Potency [1] is reported as inconclusive: 26.4 µM [cytotoxic, single point], the Potency [4] is reported as inconclusive: 37.2 µM [cytotoxic, single point] and inconclusive: 29.9 µM [cytotoxic, single point] and the Potency [3] is reported as inconclusive: 26.6 µM [cytotoxic, single point]. For the same compound, the Potency [7] was inconclusive: 23.7 µM [cytotoxic, single point], the Potency [9] was inconclusive: 23.7 µM [cytotoxic, single point] and the Potency [6] was inconclusive: 27.6 µM [cytotoxic, single point].
